# Results: the supplement of paper PMC8728848
# Some of the results follow.
# B1: Siglec-9 (Homo sapiens), Q9Y336 (protein)
# chain: MLLLLLPLLWGRERAEGQTSKLLTMQSSVTVQEGLCVHVPCSFSYPSHGWIYPGPVVHGYWFREGANTDQDAPVATNNPARAVWEETRDRFHLLGDPHTKNCTLSIRDARRSDAGRYFFKMEKGSIKWNYKHHRLSVNVTALTHRPNILIPGTLESGCPQNLTCSVPWACEQGTPPMISWIGTSVSPLDPSTTRSSVLTLIPQPQDHGTSLTCQVTFPGASVTTNKTVHLNVSYPPQNLTMTVFQGDGTVSTVLGNGSSLSLPEGQSLRLVCAVDAVDSNPPARLSLSWRGLTLCPSQPSNPGVLELPWVHLRDAAEFTCRAQNPLGSQQVYLNVSLQSKATSGVTQGVVGGAGATALVFLSFCVIFVVVRSCRKKSARPAAGVGDTGIEDANAVRGSASQGPLTEPWAEDSPPDQPPPASARSSVGEGELQYASLSFQMVKPWDSRGQEATDTEYSEIKIHR
# Tests used:
# Test in all cases: glycan array binding signal (z-score within array); higher = stronger binding
# Settings in all cases: glycan notation: IUPAC condensed, linker removed; mutation: R120K
# [1] = target: Gal(b1-3)GalNAc(b1-3)Gal
# Summary of the method: (§1)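 Arrays were curated from the Consortium for Functional Glycomics database, 3228 in total, and kept only where the protein sequence was available. Binding is expressed as a within-array Z-score. This score was averaged across arrays of the same protein sequence at different concentrations or buffers and across linkers, and negative values can be read as non-binding.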
# [2] = target: Gal(b1-3)GalNAc(b1-3)Gal(a1-4)Gal(b1-4)Glc
# Summary of the method: as §1
# [3] = target: Gal(b1-3)GalNAc(b1-4)Gal(b1-4)Glc
# Summary of the method: as §1
# [4] = target: Gal(b1-3)GalNAc(b1-4)[Neu5Ac(a2-3)]Gal(b1-4)Glc
# Summary of the method: as §1
# [5] = target: Gal(b1-3)GlcNAc
# Summary of the method: as §1
# [6] = target: Gal(b1-3)GlcNAc(a1-3)Gal(b1-4)GlcNAc
# Summary of the method: as §1
# [7] = target: Gal(b1-3)GlcNAc(a1-6)Gal(b1-4)GlcNAc
# Summary of the method: as §1
# [8] = target: Gal(b1-3)GlcNAc(b1-2)Man
# Summary of the method: as §1
# [9] = target: Gal(b1-3)GlcNAc(b1-2)Man(a1-3)[Gal(b1-3)GlcNAc(b1-2)Man(a1-6)]Man(b1-4)GlcNAc(b1-4)GlcNAc
# Summary of the method: as §1
# [10] = target: Gal(b1-3)GlcNAc(b1-2)Man(a1-3)[Gal(b1-3)GlcNAc(b1-2)Man(a1-6)]Man(b1-4)GlcNAc(b1-4)[Fuc(a1-6)]GlcNAc
# Summary of the method: as §1
# [11] = target: Gal(b1-3)GlcNAc(b1-2)Man(a1-3)[GlcNAc(b1-4)][Gal(b1-3)GlcNAc(b1-2)Man(a1-6)]Man(b1-4)GlcNAc(b1-4)GlcNAc
# Summary of the method: as §1
# [12] = target: Gal(b1-3)GlcNAc(b1-2)[Gal(b1-3)GlcNAc(b1-6)]Man(a1-6)[Gal(b1-3)GlcNAc(b1-2)Man(a1-3)]Man(b1-4)GlcNAc(b1-4)GlcNAc
# Summary of the method: as §1
# [13] = target: Gal(b1-3)GlcNAc(b1-3)Gal(b1-3)GlcNAc
# Summary of the method: as §1
# [14] = target: Gal(b1-3)GlcNAc(b1-3)Gal(b1-4)Glc
# Summary of the method: as §1
# [15] = target: Gal(b1-3)GlcNAc(b1-3)Gal(b1-4)GlcNAc
# Summary of the method: as §1
# [16] = target: Gal(b1-3)GlcNAc(b1-3)Gal(b1-4)GlcNAc(b1-2)Man(a1-3)[Gal(b1-3)GlcNAc(b1-3)Gal(b1-4)GlcNAc(b1-2)Man(a1-6)]Man(b1-4)GlcNAc(b1-4)GlcNAc
# Summary of the method: as §1
# [17] = target: Gal(b1-3)GlcNAc(b1-3)Gal(b1-4)GlcNAc(b1-2)[Gal(b1-3)GlcNAc(b1-3)Gal(b1-4)GlcNAc(b1-6)]Man(a1-6)[Gal(b1-3)GlcNAc(b1-3)Gal(b1-4)GlcNAc(b1-2)Man(a1-3)]Man(b1-4)GlcNAc(b1-4)[Fuc(a1-6)]GlcNAc
# Summary of the method: as §1
# [18] = target: Gal(b1-3)GlcNAc(b1-3)Gal(b1-4)GlcNAc(b1-3)Gal(b1-4)GlcNAc(b1-2)[Gal(b1-3)GlcNAc(b1-3)Gal(b1-4)GlcNAc(b1-3)Gal(b1-4)GlcNAc(b1-6)]Man(a1-6)[Gal(b1-3)GlcNAc(b1-3)Gal(b1-4)GlcNAc(b1-3)Gal(b1-4)GlcNAc(b1-2)Man(a1-3)]Man(b1-4)GlcNAc(b1-4)[Fuc(a1-6)]GlcNAc
# Summary of the method: as §1
# [19] = target: Gal(b1-3)GlcNAc(b1-3)Gal(b1-4)GlcNAc(b1-6)[Gal(b1-3)GlcNAc(b1-3)]Gal(b1-4)Glc
# Summary of the method: as §1
# [20] = target: Gal(b1-3)GlcNAc(b1-3)Gal(b1-4)[Fuc(a1-3)]GlcNAc
# Summary of the method: as §1
# [21] = target: Gal(b1-3)GlcNAc(b1-3)Gal(b1-4)[Fuc(a1-3)]GlcNAc(b1-6)[Gal(b1-3)GlcNAc(b1-3)]Gal(b1-4)Glc
# Summary of the method: as §1
# [22] = target: Gal(b1-3)GlcNAc(b1-3)GalNAc
# Summary of the method: as §1
# [23] = target: Gal(b1-3)GlcNAc(b1-6)Gal(b1-4)GlcNAc
# Summary of the method: as §1
# [24] = target: Gal(b1-3)GlcNAc(b1-6)GalNAc
# Summary of the method: as §1
# [25] = target: Gal(b1-3)GlcNAc(b1-6)[Gal(b1-3)]GalNAc
# Summary of the method: as §1
# [26] = target: Gal(b1-3)GlcNAc6S
# Summary of the method: as §1
# [27] = target: Gal(b1-3)[Fuc(a1-4)]GlcNAc
# Summary of the method: as §1
# [28] = target: Gal(b1-3)[Fuc(a1-4)]GlcNAc(b1-2)Man
# Summary of the method: as §1
# [29] = target: Gal(b1-3)[Fuc(a1-4)]GlcNAc(b1-2)Man(a1-3)[Gal(b1-3)[Fuc(a1-4)]GlcNAc(b1-2)Man(a1-6)]Man(b1-4)GlcNAc(b1-4)[Fuc(a1-6)]GlcNAc
# Summary of the method: as §1
# [30] = target: Gal(b1-3)[Fuc(a1-4)]GlcNAc(b1-3)Gal(b1-3)[Fuc(a1-4)]GlcNAc
# Summary of the method: as §1
# [31] = target: Gal(b1-3)[Fuc(a1-4)]GlcNAc(b1-3)Gal(b1-4)[Fuc(a1-3)]GlcNAc
# Summary of the method: as §1
# [32] = target: Gal(b1-3)[Fuc(a1-4)]GlcNAc(b1-6)GalNAc
# Summary of the method: as §1
# [33] = target: Gal(b1-3)[GlcNAc(b1-6)]GalNAc
# Summary of the method: as §1
# [34] = target: Gal(b1-3)[Neu5Ac(a2-6)]GalNAc
# Summary of the method: as §1
# [35] = target: Gal(b1-3)[Neu5Ac(a2-6)]GlcNAc(b1-4)Gal(b1-4)Glc
# Summary of the method: as §1
# [36] = target: Gal(b1-3)[Neu5Ac(b2-6)]GalNAc
# Summary of the method: as §1
# [37] = target: Gal(b1-4)Gal
# Summary of the method: as §1
# [38] = target: Gal(b1-4)GalNAc(a1-3)[Fuc(a1-2)]Gal(b1-4)GlcNAc
# Summary of the method: as §1
binder,measurement,setting,value
B1,glycan array binding signal (z-score),[1],-0.547
same,glycan array binding signal (z-score),[2],0.024
same,glycan array binding signal (z-score),[3],0.019
same,glycan array binding signal (z-score),[4],-0.082
same,glycan array binding signal (z-score),[5],-0.526
same,glycan array binding signal (z-score),[6],-0.475
same,glycan array binding signal (z-score),[7],-0.242
same,glycan array binding signal (z-score),[8],-0.121
same,glycan array binding signal (z-score),[9],-0.172
same,glycan array binding signal (z-score),[10],-0.25
same,glycan array binding signal (z-score),[11],-0.105
same,glycan array binding signal (z-score),[12],0.574
same,glycan array binding signal (z-score),[13],-0.405
same,glycan array binding signal (z-score),[14],-0.499
same,glycan array binding signal (z-score),[15],-0.688
same,glycan array binding signal (z-score),[16],-0.671
same,glycan array binding signal (z-score),[17],0.218
same,glycan array binding signal (z-score),[18],0.24
same,glycan array binding signal (z-score),[19],-0.252
same,glycan array binding signal (z-score),[20],-0.249
same,glycan array binding signal (z-score),[21],-0.491
same,glycan array binding signal (z-score),[22],-0.39
same,glycan array binding signal (z-score),[23],-0.113
same,glycan array binding signal (z-score),[24],-0.275
same,glycan array binding signal (z-score),[25],-0.035
same,glycan array binding signal (z-score),[26],-0.251
same,glycan array binding signal (z-score),[27],-0.34
same,glycan array binding signal (z-score),[28],1.24
same,glycan array binding signal (z-score),[29],0.813
same,glycan array binding signal (z-score),[30],-0.372
same,glycan array binding signal (z-score),[31],-0.46
same,glycan array binding signal (z-score),[32],0.243
same,glycan array binding signal (z-score),[33],-0.458
same,glycan array binding signal (z-score),[34],-0.13
same,glycan array binding signal (z-score),[35],0.069
same,glycan array binding signal (z-score),[36],-0.221
same,glycan array binding signal (z-score),[37],1.95
same,glycan array binding signal (z-score),[38],-0.311
